The text below walks through data of PMC4336329 (PLoS ONE, 2015).

SMILES strings stand for the structures. The whole screen tested about 310,000 compounds, of which about 2,200 (0.71%) showed an effect of 50% or more. Effects have a minus sign here. This is one part of the list.

For the assay, the target named is human ether-à-go-go-related gene (hERG) potassium channel (human, UniProt Q12809). Put plainly: primary screen, population patch clamp on CHO cells stably expressing hERG.
Sequence of human ether-à-go-go-related gene (hERG) potassium channel (Q12809 whole entry, looked up): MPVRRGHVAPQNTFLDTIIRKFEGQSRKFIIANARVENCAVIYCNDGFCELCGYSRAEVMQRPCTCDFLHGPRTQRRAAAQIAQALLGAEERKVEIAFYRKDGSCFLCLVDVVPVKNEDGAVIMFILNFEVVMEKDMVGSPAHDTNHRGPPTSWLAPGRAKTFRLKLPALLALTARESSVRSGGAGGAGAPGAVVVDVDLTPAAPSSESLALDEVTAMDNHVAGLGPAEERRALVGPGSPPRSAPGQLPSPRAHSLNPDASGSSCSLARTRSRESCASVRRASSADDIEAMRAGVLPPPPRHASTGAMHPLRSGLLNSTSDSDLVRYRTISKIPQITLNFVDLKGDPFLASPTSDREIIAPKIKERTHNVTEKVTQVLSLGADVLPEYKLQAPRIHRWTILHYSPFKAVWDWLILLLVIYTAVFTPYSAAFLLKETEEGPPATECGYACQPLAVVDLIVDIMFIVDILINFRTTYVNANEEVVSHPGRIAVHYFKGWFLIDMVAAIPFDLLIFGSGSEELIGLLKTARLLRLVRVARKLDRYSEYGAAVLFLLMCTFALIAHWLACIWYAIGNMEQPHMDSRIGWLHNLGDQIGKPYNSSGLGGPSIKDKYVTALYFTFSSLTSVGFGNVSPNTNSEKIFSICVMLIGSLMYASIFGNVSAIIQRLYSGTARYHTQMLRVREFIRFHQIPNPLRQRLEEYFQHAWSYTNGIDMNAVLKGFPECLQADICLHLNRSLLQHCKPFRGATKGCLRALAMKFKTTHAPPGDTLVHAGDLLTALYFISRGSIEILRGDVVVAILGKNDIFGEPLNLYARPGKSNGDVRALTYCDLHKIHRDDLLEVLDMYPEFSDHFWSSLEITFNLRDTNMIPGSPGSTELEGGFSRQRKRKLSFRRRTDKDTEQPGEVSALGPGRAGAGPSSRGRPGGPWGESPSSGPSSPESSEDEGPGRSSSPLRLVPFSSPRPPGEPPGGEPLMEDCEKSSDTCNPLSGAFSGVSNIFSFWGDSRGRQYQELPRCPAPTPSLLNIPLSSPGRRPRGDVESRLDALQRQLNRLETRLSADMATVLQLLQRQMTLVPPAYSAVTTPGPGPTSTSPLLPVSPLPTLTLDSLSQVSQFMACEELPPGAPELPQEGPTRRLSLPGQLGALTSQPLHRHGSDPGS
Turning to `Cc1nn(CC(=O)NCCCN2C(C)CCCC2C)c(=O)c2cc3occc3n12` (stereo not shown), the “hERG current change (%, negative = inhibition) at 1uM” value was found to be 12.3%.
`Cc1cc(C(=O)CSc2nn3c(=O)c(C(C)(C)C)nnc3s2)c(C)n1-c1ccc(F)cc1`: the “hERG current change (%, negative = inhibition) at 1uM” value is -0.0322%.
As for `COc1cc2ccc(=O)oc2c2ccoc12`, the “hERG current change (%, negative = inhibition) at 1uM” value came out at 10.2%.
Then `O=C1CC(C(=O)N2CCOCC2)C2(CCCCC2)O1` (stereo not shown), with 19.6%; and `COc1ccc(OC)c(CNC(=O)c2coc(=O)c3ccccc23)c1`, with 11.3%.
The same measure for `CN(c1ccc(OCC(=O)NC2CCCC2)cc1)S(=O)(=O)c1cccs1`: -9.67%; for `O=C(O)CN1C(=O)C2C3C=CC(C2C1=O)C1C(=O)N(CC(=O)O)C(=O)C31` (stereo not shown): 23.2%; for `Oc1ccccc1-c1nnc(SCCN2CCOCC2)n1Cc1ccccc1`: -7.71%.
The same measure for `Cc1cccc(NC(=S)NCc2ccc3c(c2)cc(C)n3C)c1C`: 5.83%.
Turning to `CCC(C)(C(=O)NC1CCCC1)N(C(=O)CNC(=O)c1ccccc1)c1c(C)n(C)n(-c2ccccc2)c1=O` (stereo not shown), the “hERG current change (%, negative = inhibition) at 1uM” value was determined as 12.2%.
The same measure for `COc1ccc(C(C(=O)NC2CCCC2)N(Cc2ccccc2)C(=O)CNC(=O)c2ccco2)cc1` (stereo not shown): 3.95%; for `Cc1nc(SCC(=O)NC2CCCC2)[nH]c(=O)c1C`: 6.4%; for `CCc1ccc(NC(=O)CN2C(=O)C(=O)N(Cc3ccccc3)C2=O)cc1`: 19.1%.
Then `Cc1ccc(O)c(NC(=O)c2ccccc2-c2ccccc2C(=O)O)c1`, with 19.5%; and `Cc1c(C(=O)Nc2ccc(Cl)cc2)c2ccccn2c1CCc1ccncc1`, with 21.1%; and `COC(=O)c1ccccc1OCCCOc1ccc(C)cc1OC`, with 2.61%.
Turning to `CCOc1ncccc1C(=O)OCC(=O)Nc1ccc2c(c1)OCCO2`, the “hERG current change (%, negative = inhibition) at 1uM” value was determined as 7.16%.
Regarding `Cc1[nH]n2c(=O)c3c(nc2c1-c1ccccc1)CCCC3`, the “hERG current change (%, negative = inhibition) at 1uM” value stood at 7.56%.
In the case of `CCOc1ccc(/C=N/Nc2ccccn2)cc1`, the “hERG current change (%, negative = inhibition) at 1uM” value is listed as 4.16%.
In the case of `CCOc1ccc(NC(=O)c2ccc(S(=O)(=O)N(C)C)cc2)cc1`, the “hERG current change (%, negative = inhibition) at 1uM” value is 17.2%.
For the compound `COCCNC(=S)N(CCN(C)C)Cc1cc2cc3c(cc2[nH]c1=O)OCO3`, the “hERG current change (%, negative = inhibition) at 1uM” value is reported as 15.5%.
With `COC(=O)/C(=N/Nc1ccccc1Cl)Sc1nnc(C(O)c2ccccc2)n1-c1ccccc1` (stereo not shown), the “hERG current change (%, negative = inhibition) at 1uM” value is 9.28%.
Regarding `Cc1csc2ncc(C(=O)N3CCCc4ccccc43)c(=O)n12`, the “hERG current change (%, negative = inhibition) at 1uM” value is on record as 11.5%.
Then `CCc1cc2c(cc(C(=O)O)n2C)s1`, with 3.46%; and `O=S(=O)(O/N=C1\CCCc2ccccc21)c1ccccc1`, with 8.01%; and `O=C1NC(=O)/C(=C\c2ccc(Oc3cnccn3)cc2)S1`, with 5.89%.
As for `Cc1cc(C(=O)OCC(=O)NCc2ccco2)c(C)n1-c1ccc(F)cc1`, the “hERG current change (%, negative = inhibition) at 1uM” value is given as -4.89%.
The same measure for `O=S(=O)(Nc1ccc(Cl)c(C(F)(F)F)c1)c1cnc[nH]1`: 9.43%; for `Cl.Clc1ccccc1CNCc1ccncc1`: 10.9%.
Then `CCc1nnc(NS(=O)(=O)c2ccc(NCc3cc(Cl)ccc3O)cc2)s1`, with 14.1%; and `O=C(CNC(c1ccccc1)c1ccccc1)NCc1ccccc1Cl`, with 8.87%.
Then `Cc1nc(SCc2ccc(C#N)cc2)n[nH]1`, with 19.7%.
For `CCCOc1ccc(C(=O)OCC(=O)c2c(N)n(C)c(=O)n(C)c2=O)cc1OCC`, the “hERG current change (%, negative = inhibition) at 1uM” value was determined as 4.18%.
The same measure for `Cc1ccc(S(=O)(=O)NC(CC(=O)NCc2ccco2)c2ccco2)cc1` (stereo not shown): 7.16%.
Regarding `COc1ccc([N+](=O)[O-])cc1NC(=O)/C=C/C(=O)O`, the “hERG current change (%, negative = inhibition) at 1uM” value worked out at 0.808%.
Then `COc1ccccc1N1CCN(C(=O)C(C)NC(=O)c2cccc([N+](=O)[O-])c2)CC1` (stereo not shown), with 1.84%.
The same measure for `CCc1cccc(OCCCN2C(=O)NC(C)(C)C2=O)c1`: 17.3%; for `COc1ccc(CN(C(=O)c2cc3ccccc3oc2=O)C2CCCCC2)cc1OC`: -5.65%.
The same measure for `Cc1[nH]c2ccccc2c1N=Nc1ccc(F)cc1`: 8.77%; for `CSc1ncccc1C(=O)OCc1nc2ccsc2c(=O)[nH]1`: 11.8%.
For the compound `Cc1nnc(-c2cccc(C(F)(F)F)c2)nc1N1CCOCC1`, the “hERG current change (%, negative = inhibition) at 1uM” value is -15.1%.
As to `CC(C)CNC(=O)c1oc2ccccc2c1COc1ccccc1`, the “hERG current change (%, negative = inhibition) at 1uM” value is recorded as 11%.
Then `CCCOC(=O)C1=C(C)NC2=C(C(=O)C(C(=O)OC)C(C)C2)C1c1ccc(N(CC)CC)cc1` (stereo not shown), with 9.1%; and `COc1ccc(CCNC(=O)c2cc(S(=O)(=O)N3CCCCC3)c[nH]2)cc1OC`, with 2.85%; and `O=C(CSc1n[nH]c(-c2ccncc2)n1)NC1CCS(=O)(=O)C1` (stereo not shown), with 8.21%.
The same measure for `Cn1cccc1C(=O)N1CCN(S(=O)(=O)c2ccccc2)CC1`: 2.21%.
